Laboratory results taken from publication PMC5945890.
Changes are numbered by the printed parent chain. Results are given in words; binding and its absence hold for the method and conditions named. In cells and extracts the contact can be indirect. Some results given as binding are weak or reduced against the parent protein; the word gives no strength. Sequences can lack the tags named with a protein.

What was measured:
[1] = molecular target: T1, mCPSF30-L-YFP^N (Arabidopsis thaliana) (UniProt A9LNK9); assay: split reporter; BiFC; YFP^N and YFP^C fusions cotransfected into Arabidopsis mesophyll protoplasts, confocal microscopy; signal in the nucleus
T1 sequence: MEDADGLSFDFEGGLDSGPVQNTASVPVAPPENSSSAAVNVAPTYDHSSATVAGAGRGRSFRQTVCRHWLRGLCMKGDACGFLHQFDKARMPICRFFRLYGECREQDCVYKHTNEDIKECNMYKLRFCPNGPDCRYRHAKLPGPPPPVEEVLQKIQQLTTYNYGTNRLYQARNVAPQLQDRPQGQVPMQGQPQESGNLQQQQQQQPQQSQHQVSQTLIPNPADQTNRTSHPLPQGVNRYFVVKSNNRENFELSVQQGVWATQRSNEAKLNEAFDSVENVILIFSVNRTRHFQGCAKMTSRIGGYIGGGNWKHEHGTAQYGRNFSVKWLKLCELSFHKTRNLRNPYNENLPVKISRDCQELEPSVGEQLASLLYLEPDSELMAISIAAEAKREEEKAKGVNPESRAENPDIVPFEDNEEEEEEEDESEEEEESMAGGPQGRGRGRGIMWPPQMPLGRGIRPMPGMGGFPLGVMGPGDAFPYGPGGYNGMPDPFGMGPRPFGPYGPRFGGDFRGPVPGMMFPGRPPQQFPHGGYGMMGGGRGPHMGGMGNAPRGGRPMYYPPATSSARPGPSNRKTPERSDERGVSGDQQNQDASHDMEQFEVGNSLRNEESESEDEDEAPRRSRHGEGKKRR

[2] = molecular target: T2, CPSF30-L-YFP^N (Arabidopsis thaliana) (UniProt A9LNK9); assay: as above
T2 sequence: T1 sequence with R126G

binding [1]: no binding | binding [2]: binds
B1: FIP1-YFP^C (protein, UniProt F4KDH9 1-1196)
chain: MEEDDEFGDLYSDVLQPFQPPVVLPPPPPLPHRSIDLNLRSQDQDVSEPNSAPISRVSDNDAVKLSTQDATRQAIVDGGGDDKDMSFDIEEPDADSTPTIPGLFVTGALPGLATDRGVSQVTTRIEQQVGGGGDGGYGGQGEGDDWDSDSEDDLQIVLNDSSRNVMIGGADRRSRMGDNEDDDDEDDEDPLVIVADTDPNQPMEEQMWGEDGLQGIEGDGKDGGEAGKGSGPGGATGPPKAGYSSHGYHPFHSQFKYVRPGAAPIPGGAASVGGPSSGQVRPPANLGPMAGRGRGDWRPLGMRNASAAQKGFHQPWGSNTAGRGLDFTLPSHKTIFEVDIDSFEEKPWRYPGVEMTDYFNFGLNEESWKDYCKQLDQHRIQTTMQSRIRVYESGRTDQGYDPDLPPELAAATGAQGVPVDSSNLVKPDSVQGDSAKVPANVRPTLPPGRPIPVETGSGERLPSIDTRAPRMRDLDAIIEIVCQDSHEDEPSGENGTDQADSSLPGENVPVETSYVNNKRPDTESAEHSPAQDEPHKNLLKKQDDEISRSTDSGQSFRSSSPVGDRGTRSSSVDREDVGGEAGKDAEMGEELKMSFTSPQSAVQEDDGGESKTERSSESSKARSGSHRDFQQEEDVIQDKHSSRPANNRKQYDNNAPHQSRKNQDRGKEMERTRAASKGGRENSNPHMELDSTYIYSIASREDFDKRKERDVDGAVWRRKEDDPYSRRGGDEGSRKRDREDDPGFRQRGKMRENEIRSKDDQVPSRKHMDDAGMRNIYEPDDHINKRRKDEEYLRRSRPEKNEISYGQRESMSRVKRERDDRLEHQKRDVQHKIRDDFDDHGSLRQRDDIYMQRDGNERLRERDVLDKLKLPHEDGISARGRERQVAVRGHRGSEDRSSRMKDEYKASDKEHVTKDTLRHAKQTKRRDYPGEESSSHHRGHEDFSARTDNIVNNEKKPRQERTGAKIDKFIDTLDGQRLQDRKHKDSRRKIKEQREGTESLSKQGEQNGSSVVTGSKGTNDARNCRSEIPHQPNTAKRHKENASSGDEIHDSKRGRTKLERWASHKEREDAVSAKSSSISSKLEEKENNTNGRLSEPVHGSIGKSRDVTEEKIGHDLADTKDGSEKGPGDRHLDTVEKLKKRSERFKLPMPTEKDTTGVKKMESETLPSAKIEGPVDSEGEYVWDERSCVRIGREYA
